This is one part of the list. These are noisy estimates, calculated here from bound and input reads.

Experimental findings from the BET-seq Pho4 binding data (Le et al. 2018) are described below.

The target of this assay is T1, Pho4 (S. cerevisiae) (UniProt P07270).
T1 sequence: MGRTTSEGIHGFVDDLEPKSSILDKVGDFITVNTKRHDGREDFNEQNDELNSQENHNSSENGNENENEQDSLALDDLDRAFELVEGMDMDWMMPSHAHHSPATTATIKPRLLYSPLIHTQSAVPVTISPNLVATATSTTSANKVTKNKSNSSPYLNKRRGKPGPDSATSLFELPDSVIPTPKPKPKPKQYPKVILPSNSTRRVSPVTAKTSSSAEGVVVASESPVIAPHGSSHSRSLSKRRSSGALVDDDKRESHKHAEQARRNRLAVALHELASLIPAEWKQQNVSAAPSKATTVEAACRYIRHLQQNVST
Briefly: relative binding free energy (BET-seq); higher = weaker binding. As to conditions: reference: library average.
Consider CTGTACACGTGATTGT, for which the “relative binding free energy” value was found to be 0.11 kcal/mol.

For AGGGACACGTGATTTT, the “relative binding free energy” value was 0.26 kcal/mol.

CTGTGCACGTGGATGT: the “relative binding free energy” value is -0.08 kcal/mol.

With CTTTACACGTGGTGAG, the “relative binding free energy” value amounted to 0.17 kcal/mol.

As to GTGATCACGTGTTTAA, the “relative binding free energy” value is 0.05 kcal/mol.

On to TGCATCACGTGGTTAG, for which the “relative binding free energy” value was 0.1 kcal/mol.

In the case of TATGGCACGTGTACGT, the “relative binding free energy” value is -0.05 kcal/mol.

Regarding AATTTCACGTGGTAAT, the “relative binding free energy” value was 0.24 kcal/mol.

With TATGGCACGTGTAAGC, the “relative binding free energy” value came to 0.13 kcal/mol.

As for TCGCGCACGTGTAGGT, the “relative binding free energy” value was -0.11 kcal/mol.

AAAGACACGTGGTTGG: the “relative binding free energy” value was -0.16 kcal/mol.

Turning to GGGTCCACGTGTGAGT, the “relative binding free energy” value is 0.14 kcal/mol.

Regarding TTAGGCACGTGGTTCA, the “relative binding free energy” value was -0.21 kcal/mol.

Take CGGTACACGTGGCATG: the “relative binding free energy” value is 0.07 kcal/mol.

On to AAGATCACGTGGGGCA, for which the “relative binding free energy” value is 0.1 kcal/mol.

Take ATATGCACGTGAGGAG: the “relative binding free energy” value amounted to 0.02 kcal/mol.

As for TATGTCACGTGATTAG, the “relative binding free energy” value is 0.28 kcal/mol.

Take TCATGCACGTGTGTGG: the “relative binding free energy” value was determined as 0 kcal/mol.

On to TGACACACGTGGGTTT, for which the “relative binding free energy” value is -0.16 kcal/mol.

For the sequence GTCCTCACGTGGGGGG, the “relative binding free energy” value amounted to 0.1 kcal/mol.

In the case of TTTCTCACGTGATTCG, the “relative binding free energy” value was 0.41 kcal/mol.

As for AGTTACACGTGGGTTA, the “relative binding free energy” value is 0.1 kcal/mol.

In the case of GTGTTCACGTGCAGTG, the “relative binding free energy” value stood at 0.25 kcal/mol.

Regarding TTTCTCACGTGAGCTG, the “relative binding free energy” value worked out at 0.4 kcal/mol.

Take GGAGTCACGTGGGCTT: the “relative binding free energy” value is 0.21 kcal/mol.

Regarding AGCGTCACGTGGGTGC, the “relative binding free energy” value was -0.07 kcal/mol.

Regarding CTGTACACGTGGTTGT, the “relative binding free energy” value stood at 0.03 kcal/mol.

Take ATGGTCACGTGTACAT: the “relative binding free energy” value came out at 0.07 kcal/mol.

GGCATCACGTGGGGAT: the “relative binding free energy” value came out at 0.15 kcal/mol.

Consider GTGGGCACGTGCGGAA, for which the “relative binding free energy” value was -0.24 kcal/mol.

Turning to ATTATCACGTGGACTG, the “relative binding free energy” value amounted to 0.12 kcal/mol.

With TTAGGCACGTGGAGGC, the “relative binding free energy” value is -0.15 kcal/mol.

Take TAATGCACGTGGAAGG: the “relative binding free energy” value came to 0.22 kcal/mol.

For the sequence ATTGTCACGTGATGCA, the “relative binding free energy” value is 0.2 kcal/mol.

Take TAGACCACGTGTTGTT: the “relative binding free energy” value stood at 0.07 kcal/mol.

Take ACGGTCACGTGGTCTG: the “relative binding free energy” value worked out at 0.21 kcal/mol.

On to TTGCGCACGTGCAAGT, for which the “relative binding free energy” value stood at 0.04 kcal/mol.

With GTGTGCACGTGTCTTA, the “relative binding free energy” value amounted to 0.08 kcal/mol.

As to GTTATCACGTGAAGAA, the “relative binding free energy” value is 0.4 kcal/mol.

Take CGGTGCACGTGAATGG: the “relative binding free energy” value was found to be 0.29 kcal/mol.

As for TGTTTCACGTGCTGAA, the “relative binding free energy” value is 0.13 kcal/mol.

Regarding AGTCACACGTGTTATT, the “relative binding free energy” value was 0.12 kcal/mol.

Take CGGGGCACGTGAGAAG: the “relative binding free energy” value is 0.02 kcal/mol.

Consider TTTGTCACGTGGTGAC, for which the “relative binding free energy” value came to 0.05 kcal/mol.

On to TGGAGCACGTGGATGG, for which the “relative binding free energy” value is -0.07 kcal/mol.

For the sequence GTCGACACGTGTAGTG, the “relative binding free energy” value turned out to be 0.15 kcal/mol.

In the case of AGTGGCACGTGCGGAT, the “relative binding free energy” value was -0.23 kcal/mol.

Take AGAGGCACGTGTACTT: the “relative binding free energy” value was found to be 0.07 kcal/mol.

As to TCGTTCACGTGAGGGG, the “relative binding free energy” value amounted to 0.44 kcal/mol.

For the sequence AGAAGCACGTGTTCTG, the “relative binding free energy” value is -0.02 kcal/mol.

For the sequence AGTGACACGTGATTTG, the “relative binding free energy” value came to 0.06 kcal/mol.

With TTGATCACGTGCGGCT, the “relative binding free energy” value amounted to 0.12 kcal/mol.

TAGACCACGTGTGGGG: the “relative binding free energy” value came out at 0.03 kcal/mol.

In the case of TTCGTCACGTGAAATG, the “relative binding free energy” value turned out to be 0.41 kcal/mol.

Take TATATCACGTGCTGGG: the “relative binding free energy” value was 0.12 kcal/mol.

As to TTTGTCACGTGGGCGT, the “relative binding free energy” value came to 0.02 kcal/mol.

As for ACGTTCACGTGGGGGA, the “relative binding free energy” value worked out at 0.16 kcal/mol.

In the case of TTTCACACGTGGAGGT, the “relative binding free energy” value is 0.18 kcal/mol.

For TGCGGCACGTGTGAGC, the “relative binding free energy” value is -0.11 kcal/mol.

As for TACTGCACGTGTATAT, the “relative binding free energy” value turned out to be 0.05 kcal/mol.

For GAAGGCACGTGGATGC, the “relative binding free energy” value was found to be 0.04 kcal/mol.

With ATAAGCACGTGCGGGG, the “relative binding free energy” value was -0.18 kcal/mol.

With TGAATCACGTGTCGTG, the “relative binding free energy” value came out at 0.2 kcal/mol.

Turning to TTCAGCACGTGAATGT, the “relative binding free energy” value came out at 0.16 kcal/mol.

With AGGAGCACGTGGGCGC, the “relative binding free energy” value was -0.28 kcal/mol.

TTGTACACGTGGTGAT: the “relative binding free energy” value worked out at 0.09 kcal/mol.

On to TAAGTCACGTGTATGT, for which the “relative binding free energy” value turned out to be 0.01 kcal/mol.

In the case of GTTTTCACGTGAAGGG, the “relative binding free energy” value amounted to 0.4 kcal/mol.

For the sequence GTTTGCACGTGTCTGC, the “relative binding free energy” value came to 0.23 kcal/mol.

With CATGGCACGTGTGGGT, the “relative binding free energy” value stood at 0.02 kcal/mol.

Regarding TGAGCCACGTGTTGGG, the “relative binding free energy” value was determined as 0.02 kcal/mol.

Consider ATTCTCACGTGTGAGT, for which the “relative binding free energy” value came to 0.15 kcal/mol.

As to GTATTCACGTGACGTA, the “relative binding free energy” value amounted to 0.38 kcal/mol.

Take TTGATCACGTGAGGTA: the “relative binding free energy” value is 0.21 kcal/mol.

Turning to AGGATCACGTGACGGG, the “relative binding free energy” value worked out at 0.24 kcal/mol.

Regarding GTGTGCACGTGGGATT, the “relative binding free energy” value was -0.04 kcal/mol.

In the case of TGTTACACGTGGCGGT, the “relative binding free energy” value turned out to be 0.1 kcal/mol.

As to GTTATCACGTGGCTGT, the “relative binding free energy” value is -0.02 kcal/mol.

For TTGGGCACGTGAGAAA, the “relative binding free energy” value was 0.16 kcal/mol.

As to TCGTACACGTGTTATG, the “relative binding free energy” value worked out at 0.22 kcal/mol.

With TGAGACACGTGGTATG, the “relative binding free energy” value is -0.09 kcal/mol.

Regarding TGGTACACGTGTTGAA, the “relative binding free energy” value was found to be 0.09 kcal/mol.

Consider TGTGCCACGTGATTCG, for which the “relative binding free energy” value amounted to 0.11 kcal/mol.

On to TCGGGCACGTGCTGTT, for which the “relative binding free energy” value was -0.06 kcal/mol.

As for ATTCTCACGTGAGTGT, the “relative binding free energy” value worked out at 0.2 kcal/mol.

Take AGGCACACGTGGCGGG: the “relative binding free energy” value is -0.15 kcal/mol.

As for GGGTTCACGTGTATAA, the “relative binding free energy” value stood at 0.45 kcal/mol.

Regarding TGTGGCACGTGTCGGA, the “relative binding free energy” value was -0.07 kcal/mol.

As for TGGAGCACGTGTGCTG, the “relative binding free energy” value was determined as 0.05 kcal/mol.

In the case of GTGTGCACGTGTGCTG, the “relative binding free energy” value came to 0.06 kcal/mol.

Turning to TTGAGCACGTGAGCTG, the “relative binding free energy” value amounted to 0.08 kcal/mol.

As to ATTGACACGTGAGTTA, the “relative binding free energy” value amounted to 0.07 kcal/mol.

Consider GAGTTCACGTGCTTAA, for which the “relative binding free energy” value is 0.51 kcal/mol.

As to TATTCCACGTGTTGAG, the “relative binding free energy” value came to 0.07 kcal/mol.

Consider TTGAACACGTGAGTTG, for which the “relative binding free energy” value came to 0.32 kcal/mol.

For the sequence TTTGACACGTGTTCTG, the “relative binding free energy” value was -0.03 kcal/mol.

As to AGTAGCACGTGTATAG, the “relative binding free energy” value was -0.03 kcal/mol.

For TATAGCACGTGCTAGG, the “relative binding free energy” value is -0.21 kcal/mol.

For the sequence GAATTCACGTGGTGGT, the “relative binding free energy” value worked out at 0.28 kcal/mol.

For the sequence GAATGCACGTGTAAGT, the “relative binding free energy” value amounted to 0.19 kcal/mol.

For GAGTGCACGTGTGTAG, the “relative binding free energy” value is -0.07 kcal/mol.

As for AGATTCACGTGAGTCT, the “relative binding free energy” value turned out to be 0.51 kcal/mol.

As to AGTTTCACGTGTCGGT, the “relative binding free energy” value turned out to be 0.32 kcal/mol.

As for CTTGCCACGTGTTAGG, the “relative binding free energy” value was -0.08 kcal/mol.

GTTTGCACGTGATATT: the “relative binding free energy” value was 0.13 kcal/mol.

Regarding GCAGTCACGTGGGCGG, the “relative binding free energy” value was -0.16 kcal/mol.

For GTGGGCACGTGAGACT, the “relative binding free energy” value was 0.34 kcal/mol.

With GTGATCACGTGTCAGG, the “relative binding free energy” value was -0.04 kcal/mol.

On to TAGATCACGTGTGGGC, for which the “relative binding free energy” value was 0.27 kcal/mol.

Turning to TGCTCCACGTGTGTGG, the “relative binding free energy” value was 0.01 kcal/mol.

GGAGTCACGTGAGCGT: the “relative binding free energy” value was determined as 0.2 kcal/mol.

In the case of TGTCGCACGTGTAGTA, the “relative binding free energy” value is -0.05 kcal/mol.

Consider TAGGGCACGTGGTGCC, for which the “relative binding free energy” value was -0.04 kcal/mol.

As for AGTGGCACGTGTTTAG, the “relative binding free energy” value was -0.03 kcal/mol.

Regarding TTTTGCACGTGCTCGG, the “relative binding free energy” value was -0.17 kcal/mol.
